Experimental data published in publication PMC4336329 (PLoS ONE, 2015).
The whole screen tested about 310,000 compounds, of which about 14,000 (4.5%) showed an effect of 50% or more. Effects have a minus sign here. The list shows a part of the results.

What follows are compounds tested against human ether-à-go-go-related gene (hERG) potassium channel (human, UniProt Q12809) (assay: primary screen, population patch clamp on CHO cells stably expressing hERG).
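Further: peak tail current of the secondary pulse compared with the same well before compound.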

human ether-à-go-go-related gene (hERG) potassium channel, sequence (Q12809 whole entry, looked up): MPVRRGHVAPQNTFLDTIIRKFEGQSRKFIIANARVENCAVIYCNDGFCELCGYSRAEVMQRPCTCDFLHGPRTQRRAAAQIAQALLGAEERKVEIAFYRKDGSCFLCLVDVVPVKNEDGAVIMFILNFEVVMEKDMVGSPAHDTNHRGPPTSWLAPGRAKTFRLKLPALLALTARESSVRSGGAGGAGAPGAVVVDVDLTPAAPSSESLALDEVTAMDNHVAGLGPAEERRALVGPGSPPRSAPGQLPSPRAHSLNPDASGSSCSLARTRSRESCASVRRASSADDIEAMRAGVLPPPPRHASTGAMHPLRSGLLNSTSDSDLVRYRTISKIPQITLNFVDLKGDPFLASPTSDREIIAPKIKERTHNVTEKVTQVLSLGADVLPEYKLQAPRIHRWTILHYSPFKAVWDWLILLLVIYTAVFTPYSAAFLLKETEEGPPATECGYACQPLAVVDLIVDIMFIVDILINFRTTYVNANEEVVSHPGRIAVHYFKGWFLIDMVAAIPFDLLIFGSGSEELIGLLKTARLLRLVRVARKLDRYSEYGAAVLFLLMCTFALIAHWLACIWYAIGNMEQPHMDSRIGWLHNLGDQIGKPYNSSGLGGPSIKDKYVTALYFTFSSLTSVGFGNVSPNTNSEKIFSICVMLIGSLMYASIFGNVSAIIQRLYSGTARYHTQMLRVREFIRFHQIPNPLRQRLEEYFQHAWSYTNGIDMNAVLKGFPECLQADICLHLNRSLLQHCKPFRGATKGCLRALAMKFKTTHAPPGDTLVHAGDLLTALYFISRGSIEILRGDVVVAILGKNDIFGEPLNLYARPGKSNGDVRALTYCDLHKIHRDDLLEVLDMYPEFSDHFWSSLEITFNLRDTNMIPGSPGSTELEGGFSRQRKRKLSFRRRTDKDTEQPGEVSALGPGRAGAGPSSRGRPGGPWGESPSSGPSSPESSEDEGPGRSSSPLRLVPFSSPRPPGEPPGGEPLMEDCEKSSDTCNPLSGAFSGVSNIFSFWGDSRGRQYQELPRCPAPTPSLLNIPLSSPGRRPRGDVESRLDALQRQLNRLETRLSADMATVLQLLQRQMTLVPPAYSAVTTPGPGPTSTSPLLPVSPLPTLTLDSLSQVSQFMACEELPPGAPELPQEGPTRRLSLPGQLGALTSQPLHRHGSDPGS

SMILES	hERG current change (%, negative = inhibition) at 10uM
CC1CCN(C(=O)C2CCCN(S(=O)(=O)c3cccc4nsnc34)C2)CC1 (centres unmarked)	-27.8%
CCOC(=O)[C@@H]1[C@H]2COc3ccc(Br)cc3[C@@H]2N2C(=O)N(c3cccc(Cl)c3)C(=O)[C@]12C	18.5%
O=C(C1CCN(S(=O)(=O)c2ccc(F)cc2)CC1)N1CC=C(c2ccccc2)CC1	-27%
O=C(COC(=O)CNC(=O)c1ccc(Cl)cc1)NC1CCCCCC1	11.9%
CCN(Cc1ccncc1)C(=O)c1ccc(Br)o1	1.66%
Cc1ccc(C)c2[nH]c(=O)c(CN(CC3CCCO3)S(=O)(=O)c3ccc4c(c3)OCCO4)cc12 (centres unmarked)	0.665%
CC1CCCCC1NC(=O)CO/N=C/c1ccccc1OC(F)F (centres unmarked)	-35.8%
COc1ccc(CNC(=O)CSc2nnc(C)c(=O)[nH]2)cc1	18.2%
Cc1cc(C(=O)Nc2ccccc2C(=O)O)ccc1NC(=O)COc1ccccc1Cl	1.08%
O=C(COC(=O)c1ccccn1)Nc1nc(-c2ccccc2)cs1	22.7%
CCOc1ccc(C(=O)NCC(c2ccco2)N2CCc3ccccc3C2)cc1 (centres unmarked)	-40.7%
O=C(Nn1c(-c2ccccc2)nc2ccccc2c1=O)c1ccc([N+](=O)[O-])cc1	-15.4%
Cc1ccc(SCC(=O)OC(C)C(=O)NC2(C#N)CCCCC2)cc1 (centres unmarked)	-2.78%
COc1ccc(CN2CCNC(=O)C2CC(=O)NCc2cnn(C)c2)cc1OC (centres unmarked)	7.27%
CCCOC(=O)c1cc(NC(=O)/C=C/c2ccccc2)ccc1O	9.86%
Cc1ccc(-c2cnc(-c3ccncc3)o2)cc1	-39.3%
COc1cc(/C=N\NC(=O)c2ccc(C)nc2)ccc1OC(=O)c1ccc2c(c1)OCO2	-7.08%
CC(=O)Nc1ccc(NC(=O)C(C)OC(=O)CC2CCCCC2)cc1 (centres unmarked)	6.52%
Cc1cc(N2CCC(C(=O)Nc3ccc(F)cc3)CC2)nc(-c2ccccc2)n1	-32.9%
CCOc1ccc(Cl)cc1C1=CC(=O)C[C@H](c2ccc(OC)cc2)C1	-5.35%
CCN(Cc1cnn(C)c1)Cc1nc(C(c2ccccc2)c2ccccc2)no1	-18.2%
CCN(CC)C1=N/C(=C\c2ccc(OC)cc2)C(=O)N1c1ccccc1	-10.5%

SMILES	hERG current change (%, negative = inhibition) at 10uM
CN(CC(O)COc1ccccc1F)C1CCCCC1.Cl (centres unmarked)	2.08%
CC(C)(CNc1ccc([N+](=O)[O-])cc1C#N)N1CCOCC1	-30.9%
Cn1c(=O)c2c(nc(SCc3ccc(F)cc3)n2C)n(C)c1=O	1.9%
COC(=O)c1cccc(Cn2nnc3ccccc3c2=O)c1	-4.39%
COc1ccc(C2c3c(oc4ccccc4c3=O)C(=O)N2CCN2CCOCC2)cc1OC (centres unmarked)	0.149%
COC(=O)CNc1c(-c2ccccc2)nc2ccc(Br)cn12	-37.9%
COc1ccc(NC(=O)C(=O)N/N=C/c2cccnc2)c(OC)c1	21.3%
COc1ccc(CNC(=O)C(C)OC(=O)c2cccn2C)cc1 (centres unmarked)	-4.51%
CCN(CC(=O)NCc1cccs1)C(=O)COc1ccc(C(N)=O)cc1	6.69%
O=C(NCCCCc1ccccc1)c1ccc(Br)o1	-32.7%
Cc1nc2ccccc2nc1OCC(=O)N1CCN(c2ccccc2)CC1	-4.75%
COc1ccc(CCN2CC(C(=O)NCc3nc(C)c(C)s3)CCC2=O)cc1 (centres unmarked)	-32.5%
CC(C)COCC1CC2(CC(C)C(=O)CC2=O)C(=O)O1 (centres unmarked)	-2.3%
Oc1ccc(-c2cn3c(n2)SCC3)cc1	6.44%
O=C1c2cnc3nc(SCc4ccc(Cl)cc4)nn3c2CC2c3ccccc3CCN12 (centres unmarked)	-4.21%
COc1cc(-c2nc(CN3CCCCC3CCNC(C)=O)c(C)o2)ccc1F (centres unmarked)	-66.6%
Cn1cnnc1SCC(=O)Nc1ccc(N2CCOCC2)cc1	3.07%
CN(CCO)C(=O)c1c(NC(=O)c2ccccc2)sc2c1CCCC2	1.64%
c1ccc(CSc2nnc(-c3ccco3)n2Cc2ccccc2)cc1	-46%
CN1CCN(C(=O)CN2C(=O)NC(C)(c3ccc4ccccc4c3)C2=O)CC1 (centres unmarked)	-3.52%
CCCCn1c(=O)[nH]c2nc3cc(N)ccc3nc2c1=O	-13.5%
Cn1c(/C=C/c2ccccc2)nc2ccccc2c1=O	15.1%
